Laboratory results taken from PMC11995724, “Antibiotic target discovery by integrated phenotypic and activity-based profiling of electrophilic fragments” (Cell chemical biology, 2025).
About 75 (2%) of roughly 3,200 compounds showed an effect of 50% or more. Some of the results follow.

system: T1, S. aureus MSSA476; design: species or system S. aureus MSSA476 (TSB) or V. cholerae SAD30 (LB); 384-well bacterial growth screen at 25 uM, OD600 relative to DMSO control; conditions: relative growth, OD600, TSB; 25 µM; inhibitor
T1 construct: MSSA476

| SMILES | % of control remaining [%] |
| --- | --- |
| N#CC(=Cc1c(Cl)cccc1Cl)C(=O)NCCc1ccccc1 [8-B14, 2-cyano-3-(2,6-dichlorophenyl)-N-(2-phenylethyl)prop-2-enamide] | 39.834 |
| N#CC(=Cc1ccccc1)C(=O)NC1CC1 [9-M15, 2-cyano-N-cyclopropyl-3-phenylprop-2-enamide] | 104.569 |
| CC1CN(C(=O)C(C)Cl)CC(C)O1 (centres unmarked) [5-F04, 2-chloro-1-(2,6-dimethylmorpholin-4-yl)propan-1-one] | 88.8889 |
| Cc1ccc(C=C(C#N)C(=O)Nc2ccccc2C(F)(F)F)cc1 [8-E16, 2-cyano-3-(4-methylphenyl)-N-[2-(trifluoromethyl)phenyl]prop-2-enamide] | 122.49 |
| CC(Cl)C(=O)N1CC(Cc2cccs2)C1 (centres unmarked) [7-I04, 2-chloro-1-{3-[(thiophen-2-yl)methyl]azetidin-1-yl}propan-1-one] | 105.495 |
| CC(Cl)C(=O)N1CC(C(=O)N2CCN(C)CC2)Oc2ccccc21 (centres unmarked) [7-A20, 2-chloro-1-[2-(4-methylpiperazine-1-carbonyl)-3,4-dihydro-2H-1,4-benzoxazin-4-yl]propan-1-one] | 92.9356 |
| CC(Cl)C(=O)N1CCC(c2nc3cc(F)ccc3s2)CC1 (centres unmarked) [6-J18, 2-chloro-1-[4-(5-fluoro-1,3-benzothiazol-2-yl)piperidin-1-yl]propan-1-one] | 94.2439 |
| C=CC(=O)NC1CCC(F)(F)CC1F (centres unmarked) [1-E11, N-(2,4,4-trifluorocyclohexyl)prop-2-enamide] | 81.2308 |
| C=CC(=O)NCc1ccc(C(=O)N2CCC(c3nc(C)no3)C2)cc1 (centres unmarked) [2-P08, N-({4-[3-(3-methyl-1,2,4-oxadiazol-5-yl)pyrrolidine-1-carbonyl]phenyl}methyl)prop-2-enamide] | 95.7354 |
| C=CC(=O)N1CCC(C(=O)N[C@@H]2CC[C@H](O)C2)(c2ccccc2)CC1 (racemic) [2-H16, rac-N-[(1R,3S)-3-hydroxycyclopentyl]-4-phenyl-1-(prop-2-enoyl)piperidine-4-carboxamide] | 135.074 |
| C=CC(=O)N1CCC(C(=O)N2CCN(CC(C)C)C(=O)C2C)CC1 (centres unmarked) [2-B08, 3-methyl-1-(2-methylpropyl)-4-[1-(prop-2-enoyl)piperidine-4-carbonyl]piperazin-2-one] | 92.6023 |
| CCCn1c(N)c(C(=O)CCl)c(=O)[nH]c1=O [10-L10, 6-amino-5-(2-chloroacetyl)-1-propyl-1,2,3,4-tetrahydropyrimidine-2,4-dione] | 109.063 |
| O=C(CCl)Nc1cc(S(=O)(=O)N2CCOCC2)ccc1O [6-J12, 2-chloro-N-[2-hydroxy-5-(morpholine-4-sulfonyl)phenyl]acetamide] | 85.7073 |
| C=CC(=O)N1CCC(c2nc(C3CC3)no2)C1 (centres unmarked) [2-E09, 1-[3-(3-cyclopropyl-1,2,4-oxadiazol-5-yl)pyrrolidin-1-yl]prop-2-en-1-one] | 98.1723 |
| O=C(CCl)NCc1cnn(-c2ccccc2)n1 [6-J03, 2-chloro-N-[(2-phenyl-2H-1,2,3-triazol-4-yl)methyl]acetamide] | 92.5366 |
| CC1CCCCC1NC(=O)CCl (centres unmarked) [6-C10, 2-chloro-N-(2-methylcyclohexyl)acetamide] | 80.9268 |
| C=CC(=O)N1CCC(c2cnn(C)c2)CC1 [2-I10, 1-[4-(1-methyl-1H-pyrazol-4-yl)piperidin-1-yl]prop-2-en-1-one] | 104.439 |
| CC(C)NC(=O)C(C#N)=Cc1ccc(C#N)cc1 [9-M11, 2-cyano-3-(4-cyanophenyl)-N-(propan-2-yl)prop-2-enamide] | 106.367 |
| Cc1ccc(C=C(C#N)C(=O)NCc2ccco2)o1 [8-P19, 2-cyano-N-[(furan-2-yl)methyl]-3-(5-methylfuran-2-yl)prop-2-enamide] | 89.6266 |
| CC(Cl)C(=O)N1CC=C(C(F)(F)F)CC1 (centres unmarked) [5-J19, 2-chloro-1-[4-(trifluoromethyl)-1,2,3,6-tetrahydropyridin-1-yl]propan-1-one] | 109.654 |
| C=CC(=O)NC1CCC(OCc2cc(C)no2)CC1 (centres unmarked) [1-M08, N-{4-[(3-methyl-1,2-oxazol-5-yl)methoxy]cyclohexyl}prop-2-enamide] | 100.571 |
| C=CC(=O)Nc1ccccc1Cl [1-O10, N-(2-chlorophenyl)prop-2-enamide] | 122.725 |
| C=CC(=O)N(CC)CC(=O)N1CCCC(c2nccn2C)C1 (centres unmarked) [3-F03, N-ethyl-N-{2-[3-(1-methyl-1H-imidazol-2-yl)piperidin-1-yl]-2-oxoethyl}prop-2-enamide] | 121.898 |
| NS(=O)(=O)c1cccc2cc(NC(=O)CCl)ccc12 [5-K16, 2-chloro-N-(5-sulfamoylnaphthalen-2-yl)acetamide] | 102.732 |

| SMILES | % of control remaining [%] |
| --- | --- |
| CC(Cl)C(=O)NC1CCN(S(C)(=O)=O)C1 (centres unmarked) [7-I15, 2-chloro-N-(1-methanesulfonylpyrrolidin-3-yl)propanamide] | 89.4819 |
| Cn1cccc1C(=O)CCl [10-B04, 2-chloro-1-(1-methyl-1H-pyrrol-2-yl)ethan-1-one] | 122.188 |
| CC(=O)c1ccc(NC(=O)CCl)cc1 [4-G07, N-(4-acetylphenyl)-2-chloroacetamide] | 93.7589 |
| N#CC(=Cc1cn2cc(Cl)ccc2n1)C(=O)NC1CCCC1 [9-P15, 3-{6-chloroimidazo[1,2-a]pyridin-2-yl}-2-cyano-N-cyclopentylprop-2-enamide] | 106.067 |
| C=CC(=O)NCCNS(=O)(=O)c1cc(C)ccc1F [2-L11, N-[2-(2-fluoro-5-methylbenzenesulfonamido)ethyl]prop-2-enamide] | 119.06 |
| O=C(CCl)Cc1cccc(F)c1 [10-C11, 1-chloro-3-(3-fluorophenyl)propan-2-one] | 113.437 |
| N#CC(=Cc1cccc(F)c1F)C(=O)NCc1ccccc1 [8-B06, N-benzyl-2-cyano-3-(2,3-difluorophenyl)prop-2-enamide] | 77.0124 |
| C=CC(=O)Nc1cc(CC(C)(C)C)no1 [1-I19, N-[3-(2,2-dimethylpropyl)-1,2-oxazol-5-yl]prop-2-enamide] | 109.011 |
| N#CC(=Cc1ccco1)C(=O)NC1CC1 [8-N21, 2-cyano-N-cyclopropyl-3-(furan-2-yl)prop-2-enamide] | 111.867 |
| N#Cc1cc([N+](=O)[O-])ccc1NC(=O)CCl [4-O09, 2-chloro-N-(2-cyano-4-nitrophenyl)acetamide] | 100.619 |
| COC(=O)c1c(C(=O)CCl)c(C)n(C(C)C)c1C [10-K21, methyl 4-(2-chloroacetyl)-2,5-dimethyl-1-(propan-2-yl)-1H-pyrrole-3-carboxylate] | 119.375 |
| O=C(CCl)NCC1CCCCN1C(=O)C(F)(F)F (centres unmarked) [5-C07, 2-chloro-N-{[1-(2,2,2-trifluoroacetyl)piperidin-2-yl]methyl}acetamide] | 98.3607 |
| CN1C=C(C(F)(F)F)C=CC1=C(C#N)C(=O)Nc1ccccc1F [8-H20, 2-cyano-N-(2-fluorophenyl)-2-[1-methyl-5-(trifluoromethyl)-1,2-dihydropyridin-2-ylidene]acetamide] | 90.2905 |
| C=CC(=O)Nc1ccccc1-n1nccn1 [3-H10, N-[2-(2H-1,2,3-triazol-2-yl)phenyl]prop-2-enamide] | 111.45 |
| O=C(CCl)Nc1ccccc1F [4-M16, 2-chloro-N-(2-fluorophenyl)acetamide] | 111.291 |
| Cc1cc(CO[C@H]2CC[C@H](NC(=O)CCl)CC2)on1 [6-K19, 2-chloro-N-[(1r,4r)-4-[(3-methyl-1,2-oxazol-5-yl)methoxy]cyclohexyl]acetamide] | 95.6098 |
| Cc1cc(C(=O)CCl)c(C)n1-c1ccc2c(c1)OCO2 [10-K14, 1-[1-(1,3-dioxaindan-5-yl)-2,5-dimethyl-1H-pyrrol-3-yl]-2-chloroethan-1-one] | 139.375 |
| Cc1cc(C)c(NC(=O)C(C)Cl)c(Cl)c1 (centres unmarked) [6-E10, 2-chloro-N-(2-chloro-4,6-dimethylphenyl)propanamide] | 91.1707 |
| CC(Cl)C(=O)N1CCCC(c2cnn(C)c2)C1 (centres unmarked) [7-M16, 2-chloro-1-[3-(1-methyl-1H-pyrazol-4-yl)piperidin-1-yl]propan-1-one] | 82.5746 |
| C=CC(=O)Nc1cccc2c1CCN2C(C)=O [1-F05, N-(1-acetyl-2,3-dihydro-1H-indol-4-yl)prop-2-enamide] | 108.308 |
| O=C(CCl)NCCS(=O)(=O)N1CCc2ccccc21 [6-H04, 2-chloro-N-[2-(2,3-dihydro-1H-indole-1-sulfonyl)ethyl]acetamide] | 86.0488 |
| N#CCCSc1ccccc1NC(=O)CCl [6-N12, 2-chloro-N-{2-[(2-cyanoethyl)sulfanyl]phenyl}acetamide] | 88.439 |
| C=CC(=O)N1CCOC(c2nccs2)C1 (centres unmarked) [3-H09, 1-[2-(1,3-thiazol-2-yl)morpholin-4-yl]prop-2-en-1-one] | 127.471 |
